From the supplement of paper PMC11417369 come the findings set out here.

± gives the standard deviation of the averaged measurements. This is one part of the list.

The test concerns PfAP2-LT AP2 domain (GST-tagged). As to the kind of experiment: gcPBM binding intensity (ln(normalized median fluorescence intensity)); higher = stronger DNA binding. In short, it runs like this:
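An Agilent 4 × 180k array carrying primer-extended double-stranded 36-bp intergenic genomic probes and negative controls received GST-tagged P. falciparum DNA-binding domains expressed in E. coli, about 25 μg on average, for 1 h. The binding buffer contained 1× PBS, 1% milk, 0.2 mg/ml BSA, 0.5% salmon testes DNA and 0.03% Triton X-100. Binding intensity is the top Masliner-normalised natural-log median intensity across replicate spots of either probe orientation, read after Alexa488 anti-GST antibody staining and a 488 nm scan.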
TTACATGTACAAAAGTTGCACTTCATACACTTTTAT: the “gcPBM binding intensity (ln)” value stood at 8.99 ± 0.46.

With “TCATTTTATTATTCTACACACTTATCTATAATTACA [CACACA_site6168]”, the “gcPBM binding intensity (ln)” value is 8.88 ± 0.47.

Turning to “AGTATATCAAAATACATACACACATTTGTATATACA [CACACA_site2697]”, the “gcPBM binding intensity (ln)” value was determined as 9.03 ± 0.34.

As for “TACGTTATGTTGAATAGTACAATTTGGTGAACAGGT [XGTACX_site1729]”, the “gcPBM binding intensity (ln)” value is 8.82 ± 0.42.

For the sequence “TTTTTTTTTTTTTTTTGTACACAAATTTATTGTCTA [XGTACX_site2680]”, the “gcPBM binding intensity (ln)” value was 8.63 ± 0.37.

On to “GTCCTCATCCACTATGCACACAAAAAAGAAATACAC [CACACA_site9131]”, for which the “gcPBM binding intensity (ln)” value was found to be 9.13 ± 0.4.

Consider “TTTCCAAATTGTTGACGGACACTCACGAATAGTTAT [XGTACX_site5720]”, for which the “gcPBM binding intensity (ln)” value is 8.74 ± 0.45.

As for “ACATGAAGATATTTTTGTCCGTACAAATTCATATGA [XGTACX_site1837]”, the “gcPBM binding intensity (ln)” value came out at 8.66 ± 0.23.

Regarding “CATATGTATATGACTACACACAAGGGTGTACATATA [CACACA_site1164]”, the “gcPBM binding intensity (ln)” value is 9.2 ± 0.38.

Turning to “ATGTATATATTTACGTGTACATATTCATGTGATATC [XGTACX_site5871]”, the “gcPBM binding intensity (ln)” value is 9.03 ± 0.32.

Consider “TTATACTTTGGGTGGTGTACTATATTATGCTTATAA [XGTACX_site1106]”, for which the “gcPBM binding intensity (ln)” value is 9.05 ± 0.17.

As for “TGCTATTTTTTCCTTTTTTTGTATCACAATCATATA [CACACA_negctrl_site1576]”, the “gcPBM binding intensity (ln)” value amounted to 8.75 ± 0.48.

For “ATTAAACATAAATATGCACACATATACATATATTCA [CACACA_site8850]”, the “gcPBM binding intensity (ln)” value was 9.01 ± 0.38.

Regarding “AGTAATAAAAGTAGAAGTACAATACTTCAAAGATAT [XGTACX_site8562]”, the “gcPBM binding intensity (ln)” value was 8.86 ± 0.52.

With “TATTTCAAAATATGGGTGCAGTTCTTCATGATATAT [GTGCAC_site9658]”, the “gcPBM binding intensity (ln)” value is 8.79 ± 0.41.

As to “GTTCTAAAAGTTAATGCATGTTATAAGTTTCCCTCT [TGCATGCA_site94]”, the “gcPBM binding intensity (ln)” value was determined as 8.87 ± 0.44.

Consider “ATTATATACATTTTAGTGCATTACATAATAATATAA [GTGCAC_site9836]”, for which the “gcPBM binding intensity (ln)” value was 8.53 ± 0.41.

As for “GTATGCATTATATACACACATACATTTATATATTCT [CACACA_site115]”, the “gcPBM binding intensity (ln)” value was determined as 9.1 ± 0.38.

In the case of “TTTCTTTTTTGATGCGTGCACATTTGTTTATTTTTC [GTGCAC_site9792]”, the “gcPBM binding intensity (ln)” value is 9.02 ± 0.47.

Turning to “ACTATTTAATATAGGGTGCAACTTTTTCAAGTAAAT [GTGCAC_site9853]”, the “gcPBM binding intensity (ln)” value is 8.66 ± 0.42.

As for “TTTATTTATTAATACACACACACACCCAGACAAAAT [CACACA_site4292]”, the “gcPBM binding intensity (ln)” value was determined as 10 ± 0.099.

Take “TATCTTTTTACAATAGTGCATATGTTATCATTAATA [GTGCAC_site9489]”: the “gcPBM binding intensity (ln)” value came to 8.69 ± 0.42.

Turning to “ATTTGCCCATTTAATTAACACACAAATGTTTATATT [CACACA_site8145]”, the “gcPBM binding intensity (ln)” value was 9.04 ± 0.46.

For “AGATATATAAATATTACACACTATATATCTATTTAT [CACACA_site6466]”, the “gcPBM binding intensity (ln)” value is 8.88 ± 0.37.

As to “ACCCCCATATTCTTTTTACACACTTGAATAAAAAAT [CACACA_site8319]”, the “gcPBM binding intensity (ln)” value came out at 9.51 ± 0.11.

Regarding “ATTTTTCAATTATGTAGTACATTGATATTTTCATTT [XGTACX_site5369]”, the “gcPBM binding intensity (ln)” value was 8.89 ± 0.39.

With “ATTCATTTTATTTTTTCACACACACCGATATATATA [CACACA_site9097]”, the “gcPBM binding intensity (ln)” value is 9.54 ± 0.3.

As to “AAAGGGGAAAATATTATACATATAATAAATCCGTAT [XGTACX_negctrl_site355]”, the “gcPBM binding intensity (ln)” value turned out to be 8.72 ± 0.52.

With “TTTTTTTTTTTGTGGTGTACCTTTATTTCCTTTTAG [XGTACX_site6934]”, the “gcPBM binding intensity (ln)” value is 8.79 ± 0.52.

For “AAAAAAAAAAAACACACACACACACCGATACATACA [CACACA_site8849]”, the “gcPBM binding intensity (ln)” value is 10.4 ± 0.085.

For the sequence “ATTTTTATTCTTATTACACACCTAAATATAAAATAT [CACACA_site2064]”, the “gcPBM binding intensity (ln)” value is 8.71 ± 0.34.

For “TTTATATTTATATTGGGTACATAAAAAGCTTGAAAT [XGTACX_site8248]”, the “gcPBM binding intensity (ln)” value turned out to be 8.32 ± 0.41.

With “ATAAATATGGAGCACACACACATAAACATACATATA [CACACA_site421]”, the “gcPBM binding intensity (ln)” value amounted to 9.96 ± 0.49.

As for TGTGTCCATTGAACAGTGCAATAAAAACTTTTACAT, the “gcPBM binding intensity (ln)” value came out at 8.69 ± 0.42.

For the sequence “TGTGTTCATATATGCACACGCATATATATTATTGTT [CACACA_site3822]”, the “gcPBM binding intensity (ln)” value turned out to be 9.07 ± 0.35.

For the sequence “ATGTGCACATGTAGAAGTACTTTTTCTTAAAATACT [XGTACX_site8341]”, the “gcPBM binding intensity (ln)” value was found to be 9.18 ± 0.54.

TATGTTTTATATAAGATGCACTTTTGTTATGCTTCA: the “gcPBM binding intensity (ln)” value stood at 8.79 ± 0.46.

Turning to “ATTCTACACGCACATACACACATATAAATATAAATA [CACACA_site7582]”, the “gcPBM binding intensity (ln)” value was determined as 9.24 ± 0.35.

As for “ATTTATGTTATTGTATGTACACAATATAATGTTATT [XGTACX_site5657]”, the “gcPBM binding intensity (ln)” value worked out at 9.04 ± 0.35.

Turning to “AAAAAAAAATATATATATATATATATATAATAAAAA [CACACA_negctrl_site639]”, the “gcPBM binding intensity (ln)” value was 9.36 ± 0.43.

On to “TAAAAAGTACATTATTCATGGCCTATTACATTTTTT [GTGCAC_negctrl_site282]”, for which the “gcPBM binding intensity (ln)” value came to 8.9 ± 0.48.

In the case of “AAAAAAAAAAAATGTGCACACGCGTACAGACAAAAA [CACACA_site2005]”, the “gcPBM binding intensity (ln)” value turned out to be 9.43 ± 0.35.

For the sequence “ATATTTTACATATTTGCACACATATATTTAAATACA [CACACA_site4628]”, the “gcPBM binding intensity (ln)” value was found to be 9.2 ± 0.24.

Turning to “ACACAAAAATAGTTTTTTATATTGTTAACCTTATAT [XGTACX_negctrl_site123]”, the “gcPBM binding intensity (ln)” value turned out to be 8.74 ± 0.45.
